# Measured values taken from the supplement of paper PMC12355420.
# Structures can show the parent of a compound that is named as a salt. The list shows a part of the results. Repeats are few or missing, and single values can be far off.
# Test system: HeLa VPS33A KO + NLuc-VPS33A R498W
# Experiment: relative mutant VPS33A R498W amount (NanoLuc luminescence) vs DMSO (fraction of DMSO); HeLa model of a glycosaminoglycan (GAG) storage disease; KI is knock-in and KO knock-out; SDC1 is syndecan 1; higher = higher mutant VPS33A level
# Settings: 50 µM; 24 h
# 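Also: screen of an FDA-approved drug library, NanoLuc luminescence read after lysing the treated cells, taken as a measure of mutant VPS33A protein stability.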
row,Compound,relative mutant VPS33A R498W amount
1,O=C(O)/C=C/c1ccc(O)c(O)c1 [Caffeic acid],1.18
2,COc1ccc2cc([C@H](C)C(=O)O)ccc2c1 [Naproxen Sodium],1.18
3,O=c1cc[nH]c(=O)[nH]1 [Uracil],2
4,CN1CCN2c3ccccc3Cc3ccccc3C2C1 (configuration not stated) [Mianserin HCl],0.797
5,O=C(N[C@H](CO)[C@H](O)c1ccc([N+](=O)[O-])cc1)C(Cl)Cl [Chloramphenicol],0.843
6,COc1ccc2c(c1OC)C(=O)O[C@@H]2[C@H]1c2c(cc3c(c2OC)OCO3)CCN1C [Noscapine HCl],0.793
7,Cc1ncc(CO)c(CO)c1O [Pyridoxine],1.01
8,O=C(O)C1=CO[C@@H](O[C@@H]2O[C@H](CO)[C@@H](O)[C@H](O)[C@H]2O)[C@@H]2C(CO)=CC[C@H]12 [Geniposidic acid],1.53
9,CC1(C)Cc2c(-c3ccccc3)c(-c3ccc(Cl)cc3)c(CC(=O)O)n2C1 [Licofelone],0.838
10,C[C@]1(OC(=O)/C=C/c2ccccc2)C[C@@H](O)[C@]2(O)C=CO[C@@H](O[C@@H]3O[C@H](CO)[C@@H](O)[C@H](O)[C@H]3O)[C@@H]21 [Harpagoside],1.23
11,O=C(O)c1ccncc1 [Isonicotinic acid],1.12
12,CC(=O)Oc1cc2c(s1)CCN(C(C(=O)C1CC1)c1ccccc1F)C2 (configuration not stated) [Prasugrel hydrochloride],0.471
13,CCCCCN(C)CCC(O)(P(=O)(O)O)P(=O)(O)O [Ibandronate sodium],0.517
14,COc1cc(Nc2nc3ccccc3nc2NS(=O)(=O)c2ccc(NC(=O)c3ccc(C)c(OC)c3)cc2)cc(OC)c1,1.16
15,CC1(C)O[C@@H]2C[C@H]3[C@@H]4C[C@H](F)C5=CC(=O)C=C[C@]5(C)[C@H]4[C@@H](O)C[C@]3(C)[C@]2(C(=O)CO)O1 [Flunisolide],1.01
16,O=C(NCCN1CCOCC1)c1ccc(Cl)cc1,1.11
17,COC1=CC(=O)C[C@@H](C)[C@]12Oc1c(Cl)c(OC)cc(OC)c1C2=O [Griseofulvin],1.11
